In the supplement of paper PMC12217912:
The list shows a part of the results. Sequences were assembled here from the parent chain. Values near 0.05 are background.

B1: TEV protease; numbered along this chain (parent)
chain: MGESLFKGPRDYNPISSSICHLTNESDGHTTSLYGIGFGPFIITNKHLFRRNNGTLVVQSLHGVFKVKDTTTLQQHLVDGRDMIIIRMPKDFPPFPQKLKFREPQREERICLVTTNFQTKSMSSMVSDTSCTFPSGDGIFWKHWIQTKDGQCGSPLVSTRDGFIVGIHSASNFTNTNNYFTSVPKNFMELLTNQEAQQWVSGWRLNADSVLWGGHKVFMVKPEEPFQPVKEATQL

Variants of: B1
Test: raw area under fraction-flipped curve 0-4 h after induction (AUC4h, not background-subtracted), DNA-recorder readout of cleavage of the substrate (dimensionless); higher = more cleavage of the substrate by the protease variant
Details: temperature: 34 °C; time window: 0-4 h after rhamnose induction
Experimental: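 In vivo DNA recorder in E. coli TOP10(DE3) ΔrhaA at 34 °C. Each TEVp single-site mutant (parent TEVp 0) is paired with a single-site variant of the 7-mer TEVs (canonical ENLYFQ|S). The substrate sits between flexible linkers in a Bxb1-sfGFP-TEVs-SsrA fusion, so cleavage stabilises Bxb1 and speeds flipping of a recombination array, read by NGS. The value is the raw area under the fraction-flipped curve over 0-4 h after rhamnose induction (AUC4h), with ≥20 reads per time point. It is not background-subtracted; inactive controls average about 0.047.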
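Note: Bxb1 expression induced with 0.2% (w/v) L-rhamnose at OD600 near 0.5, cultures sampled hourly, flipped fraction per protease–substrate barcode pair counted by paired-end Illumina sequencing.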

Variant | area with substrate ENLYAQS | area with substrate ENLYDQS | area with substrate ENLYEQS | area with substrate ENLYGQS | area with substrate ENLYHQS | area with substrate ENLYIQS | area with substrate ENLYKQS | area with substrate ENLYLQS | area with substrate ENLYMQS | area with substrate ENLYNQS | area with substrate ENLYPQS | area with substrate ENLYQQS | area with substrate ENLYRQS | area with substrate ENLYSQS | area with substrate ENLYVQS | area with substrate ENLYWQS | area with substrate ENLYYQS | area with substrate ENLYCQS | area with substrate ENLYTQS
N24P | 0.0583 | 0.0498 | 0.0678 | 0.058 | 0.0564 | 0.0508 | 0.0473 | 0.0471 | 0.0359 | 0.0569 | 0.0742 | 0.0717 | 0.0468 | 0.0535 | 0.0785 | 0.0582 | 0.0463 | – | –
T23W | 0.0537 | 0.0631 | 0.0729 | 0.0594 | 0.0666 | 0.0837 | 0.0681 | 0.0714 | 0.0707 | 0.0655 | 0.0683 | 0.0638 | 0.0599 | 0.0605 | 0.0994 | 0.0743 | 0.0708 | 0.0033 | 0.0722
D208W | 0.0564 | 0.0644 | 0.0586 | – | 0.0586 | 0.057 | 0.0555 | 0.0545 | 0.0525 | 0.0534 | 0.0522 | 0.0633 | 0.0648 | 0.0687 | 0.0745 | 0.0703 | – | – | –
F101N | 0.053 | 0.042 | 0.0482 | 0.0479 | 0.0475 | – | 0.062 | – | 0.0514 | 0.0504 | 0.0474 | 0.0475 | – | – | 0.0502 | 0.0313 | 0.0501 | – | –
D128Q | 0.0845 | 0.0687 | 0.0725 | 0.0601 | 0.0824 | – | 0.0275 | – | 0.0919 | 0.0819 | 0.0773 | 0.0365 | 0.0611 | 0.114 | – | 0.0976 | 0.119 | 0.11 | –
H47G | 0.0529 | 0.0559 | 0.0569 | 0.0618 | 0.0519 | – | 0.0662 | 0.0587 | 0.0531 | 0.0543 | 0.069 | 0.0758 | 0.0529 | 0.0645 | 0.0147 | 0.0581 | 0.0658 | – | 0.0588
V57R | 0.074 | 0.0433 | 0.0666 | 0.0337 | 0.0766 | – | – | – | – | 0.078 | 0.0611 | 0.053 | 0.0549 | – | 0.113 | 0.0762 | 0.0666 | – | 0.0665
S18T | 0.0936 | 0.0475 | 0.0593 | – | 0.0719 | 0.161 | 0.0622 | – | 0.0814 | 0.048 | – | 0.0668 | – | 0.0445 | 0.152 | 0.0778 | 0.066 | 0.0997 | –
S18M | 0.0776 | 0.0595 | 0.0695 | – | – | 0.108 | 0.0605 | – | 0.0673 | 0.0785 | 0.0783 | – | 0.0593 | – | – | 0.0803 | 0.058 | – | 0.0839
H21I | 0.0643 | 0.0437 | 0.0642 | 0.0564 | 0.0618 | 0.0664 | 0.0383 | – | 0.0652 | 0.0637 | 0.0638 | 0.059 | 0.0626 | 0.0701 | 0.116 | – | 0.0681 | 0.0786 | 0.08
P96A | 0.0703 | 0.0496 | 0.0813 | 0.0699 | 0.0738 | 0.131 | 0.0607 | – | 0.0847 | 0.0673 | – | – | – | 0.0815 | 0.071 | – | 0.0729 | – | –
T192N | 0.0722 | 0.0691 | 0.0592 | 0.0469 | – | 0.136 | 0.0533 | 0.0792 | – | 0.0731 | 0.065 | – | 0.0567 | 0.0706 | 0.145 | – | 0.0732 | – | –
S4L | 0.071 | 0.0563 | 0.0667 | 0.0653 | 0.058 | 0.0905 | 0.0471 | – | 0.0682 | 0.0654 | 0.0611 | 0.024 | 0.0631 | 0.0678 | 0.079 | 0.0799 | 0.0678 | 0.0654 | –
W199G | 0.0669 | 0.0629 | 0.0599 | 0.066 | 0.0734 | – | 0.0509 | – | 0.069 | – | – | – | 0.057 | 0.0621 | 0.0748 | 0.0662 | – | – | –
L191C | 0.06 | 0.0679 | 0.0686 | 0.064 | 0.0621 | 0.096 | 0.066 | – | – | 0.0596 | 0.0699 | 0.0551 | 0.0655 | 0.103 | 0.0978 | 0.0812 | 0.0545 | – | 0.0659
Q75N | 0.0636 | 0.0609 | 0.0539 | – | 0.0636 | – | – | – | – | – | – | – | 0.0644 | – | – | 0.108 | – | – | –
Y179M | 0.0565 | 0.0392 | 0.0521 | – | 0.0468 | 0.0561 | 0.0295 | 0.0433 | 0.0507 | – | 0.0574 | 0.0511 | 0.0593 | – | 0.0732 | – | – | – | –
W144F | 0.0774 | – | 0.0698 | 0.0673 | 0.0756 | – | 0.0218 | – | 0.0755 | – | – | – | – | 0.0715 | – | – | 0.0636 | – | –
L61C | 0.0769 | 0.0484 | 0.0761 | 0.0838 | 0.0707 | – | 0.0563 | 0.0833 | 0.0835 | 0.0688 | 0.0725 | 0.0719 | 0.0651 | 0.0657 | 0.113 | 0.0851 | 0.0723 | – | 0.0804
N13Q | 0.0683 | 0.0655 | 0.0665 | 0.068 | 0.0691 | 0.124 | 0.073 | 0.0783 | 0.0864 | 0.0685 | 0.0691 | 0.0606 | 0.0623 | 0.0786 | 0.112 | 0.084 | 0.0539 | – | 0.0789
G80W | 0.0828 | 0.0636 | 0.0678 | 0.0635 | 0.063 | 0.123 | 0.0605 | – | 0.105 | 0.0639 | 0.0533 | 0.0625 | – | 0.0677 | 0.122 | 0.0729 | 0.0711 | – | –
G80E | 0.0913 | – | 0.0634 | 0.0749 | 0.0724 | – | 0.0446 | – | – | 0.073 | 0.0653 | 0.0708 | – | 0.115 | 0.17 | 0.0899 | – | – | 0.0792
G80V | 0.0777 | 0.055 | 0.0494 | 0.0349 | – | 0.0912 | 0.0548 | – | 0.0699 | 0.0673 | 0.0684 | – | 0.0524 | 0.0643 | 0.101 | 0.0861 | 0.0564 | – | –
G136K | 0.0481 | 0.054 | 0.0496 | 0.0645 | 0.0756 | 0.118 | – | – | 0.0714 | 0.0671 | 0.073 | – | – | 0.0659 | – | – | – | – | –
K216V | 0.0648 | 0.0608 | 0.0706 | – | 0.0569 | 0.105 | 0.0589 | – | 0.0956 | 0.0624 | 0.0804 | 0.0412 | 0.046 | – | 0.106 | 0.0869 | 0.115 | – | –
